Assay results: the supplement of paper PMC4466236
The full ranking holds about 33,000 sequences; the median of “E-score (dimensionless, -0.5 to 0.5)” is about -0.058, and the highest 2% start at about 0.35. The list shows a part of the results.

System: MvaT
Experiment: PBM 8-mer E-score (mean of HK and ME arrays) (E-score (dimensionless, -0.5 to 0.5)); higher = stronger relative binding preference; most listed sequences are background and not binding sites
How it was run: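 Full-length P. aeruginosa MvaT carrying an N-terminal glutathione S-transferase tag was tested by protein binding microarray following a previously described protocol. Two universal double-stranded 60-mer arrays, ME and HK, were used, each with a constant 25-mer primer region and a variable 35-mer region covering all 8-mers. The rank-based E-score is the mean of the two arrays, parsed with a custom script. Its range runs from -0.5 to 0.5 for each 8-mer.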

Going from GCCCGTCA to CTACATTC, the “PBM 8-mer E-score” value rises from -0.25 to -0.000766.

First: TGCTTTAA
Second: GACGTTCA
The “PBM 8-mer E-score” value of the first is higher: 0.094 for the first, -0.218 for the second.

First: GCGGCCCA
Second: CTATTCCC
The “PBM 8-mer E-score” value of the first is lower: -0.357 for the first, 0.0347 for the second.

First: ATTGGGAA
Second: ATTAGTAA
The “PBM 8-mer E-score” value of the first is lower: 0.00113 for the first, 0.332 for the second.

First: ATCGTTCG
Second: GAGCCCTA
The “PBM 8-mer E-score” value of the first is higher: -0.21 for the first, -0.238 for the second.

Compared with CACGAATC, CGTATACA is higher in “PBM 8-mer E-score” value: 0.0115 for the first, 0.17 for the second.

Going from CCCTTACA to CCGAGTGC, the “PBM 8-mer E-score” value falls from -0.0977 to -0.154.

Going from AATCCTGA to CATGTTCA, the “PBM 8-mer E-score” value falls from 0.0241 to -0.0267.

First: CATCCATC
Second: GCGTCGAC
The “PBM 8-mer E-score” value of the first is higher: -0.105 for the first, -0.247 for the second.

First: GTTCTTGA
Second: CATGAGTC
The “PBM 8-mer E-score” value of the first is higher: -0.043 for the first, -0.0795 for the second.

Compared with TAGAGCCA, AATGAATC is higher in “PBM 8-mer E-score” value: -0.138 for the first, 0.211 for the second.

Going from CATTTTTA to AGCTGCTA, the “PBM 8-mer E-score” value falls from 0.242 to -0.226.

First: CACTAATC
Second: GCTACGAC
The “PBM 8-mer E-score” value of the first is higher: 0.126 for the first, -0.224 for the second.

Compared with CACTTCTG, ACCGGCAG is lower in “PBM 8-mer E-score” value: 0.0733 for the first, -0.195 for the second.

First: AACGACTC
Second: CAGCGCGC
The “PBM 8-mer E-score” value of the first is higher: 0.0548 for the first, -0.206 for the second.

Compared with GCTACACA, CTGGAAAC is lower in “PBM 8-mer E-score” value: -0.0734 for the first, -0.0862 for the second.

Going from CTCTTCAG to AGGCGCTG, the “PBM 8-mer E-score” value falls from -0.143 to -0.199.

Compared with ATGTTCAC, CCGACATC is lower in “PBM 8-mer E-score” value: 0.116 for the first, -0.124 for the second.

Going from GCCGTTTA to CCTACGGA, the “PBM 8-mer E-score” value falls from 0.0727 to -0.265.

Going from CGTTTGTA to GAAGTGGC, the “PBM 8-mer E-score” value falls from 0.122 to -0.107.

Going from ATTCCAGA to CATGGGGA, the “PBM 8-mer E-score” value falls from -0.0246 to -0.172.

Compared with GATGTCAA, TATCCGCA is higher in “PBM 8-mer E-score” value: -0.0616 for the first, 0.142 for the second.

First: GAGAATCA
Second: AGAACAGA
The “PBM 8-mer E-score” value of the first is lower: -0.0307 for the first, 0.1 for the second.

First: CTTTTGAC
Second: TGGAAAAA
The “PBM 8-mer E-score” value of the first is lower: -0.000252 for the first, 0.0629 for the second.

First: CGACCAAG
Second: AGTACTAG
The “PBM 8-mer E-score” value of the first is lower: -0.131 for the first, 0.02 for the second.

First: CATGCTCC
Second: AGTGCGGG
The “PBM 8-mer E-score” value of the first is lower: -0.179 for the first, -0.139 for the second.

Going from AGGGAATA to ATGCATGG, the “PBM 8-mer E-score” value falls from 0.0758 to -0.134.

First: ACGTACGC
Second: CAAGCATC
The “PBM 8-mer E-score” value of the first is higher: -0.105 for the first, -0.121 for the second.

Going from GTAAGTTA to ATCTGGTA, the “PBM 8-mer E-score” value falls from 0.396 to -0.114.

Going from AGACCTCC to CTCGTCTC, the “PBM 8-mer E-score” value rises from -0.277 to -0.199.

Compared with ACAAGGAC, CGTTATTA is higher in “PBM 8-mer E-score” value: -0.136 for the first, 0.364 for the second.

Going from ACCCGTCA to AGTGCAAA, the “PBM 8-mer E-score” value rises from -0.117 to 0.135.

Compared with CTTTGTTA, CACGCTCG is lower in “PBM 8-mer E-score” value: 0.25 for the first, -0.168 for the second.

Going from AGCGCCCC to CTTGAGGA, the “PBM 8-mer E-score” value rises from -0.195 to -0.0094.

First: ATTATGAC
Second: CGGGACCC
The “PBM 8-mer E-score” value of the first is higher: 0.187 for the first, -0.259 for the second.

Going from AATGGGAC to CACGATCG, the “PBM 8-mer E-score” value rises from -0.159 to -0.122.

First: CAACATAA
Second: CAAATCGG
The “PBM 8-mer E-score” value of the first is higher: 0.271 for the first, -0.078 for the second.

Going from GTGAGCAC to CAGGTGCA, the “PBM 8-mer E-score” value rises from -0.167 to -0.0913.

First: AACCTTGC
Second: CTTTCAAC
The “PBM 8-mer E-score” value of the first is lower: -0.0834 for the first, 0.0504 for the second.

Going from CCTCAGGC to ACCCTTAC, the “PBM 8-mer E-score” value rises from -0.25 to -0.128.

First: CGATAAAA
Second: AAGACCGG
The “PBM 8-mer E-score” value of the first is higher: 0.17 for the first, -0.0679 for the second.

First: GTCGTCCA
Second: ACATATGA
The “PBM 8-mer E-score” value of the first is lower: -0.15 for the first, 0.179 for the second.

Compared with CGGACTCC, AGGGTTAG is higher in “PBM 8-mer E-score” value: -0.218 for the first, -0.216 for the second.

Going from GGGCGACC to GCGGAACA, the “PBM 8-mer E-score” value rises from -0.294 to 0.0739.

First: CAGCTAGG
Second: CACGTCTG
The “PBM 8-mer E-score” value of the first is lower: -0.307 for the first, -0.164 for the second.

Compared with ACGTCACA, CGATATAG is higher in “PBM 8-mer E-score” value: -0.00152 for the first, 0.196 for the second.

Going from CGGTGAAC to CAACTGCA, the “PBM 8-mer E-score” value falls from -0.0689 to -0.0768.

AAATACAC was tested, and the “PBM 8-mer E-score” value was 0.0784.
